# In DBAASP:
# Tests used:
# Test in all cases: ≥ marks a high value that may be exact or a test limit, other limits are often not marked
# Escherichia coli BL21 = system: Escherichia coli BL21
# [1] = system: Pseudomonas aeruginosa PAO1
# [2] = system: Streptococcus pyogenes M1T1 5448
# Fusarium culmorum = system: Fusarium culmorum
# Aerococcus viridans = system: Aerococcus viridans
# Bacillus megaterium = system: Bacillus megaterium
# Alternaria brassicicola = system: Alternaria brassicicola
# Ascochyta pisi = system: Ascochyta pisi
# Neurospora crassa = system: Neurospora crassa
# Pediococcus acidilactici = system: Pediococcus acidilactici
# Botrytis cinerea = system: Botrytis cinerea
# Trichoderma viride = system: Trichoderma viride
# Fusarium haematococcum = system: Fusarium haematococcum
# Micrococcus luteus = system: Micrococcus luteus
# Klebsiella pneumoniae = system: Klebsiella pneumoniae
# [3] = system: Mycobacterium tuberculosis mc2-6230
# Streptococcus pyogenes = system: Streptococcus pyogenes
# [4] = system: Streptococcus pneumoniae ATCC 49619
# [5] = system: Pseudomonas aeruginosa ATCC 27853
# [6] = system: Mycobacterium tuberculosis mc2-6020
# [7] = system: Staphylococcus aureus ATCC 25923
# Streptococcus mutans = system: Streptococcus mutans
# Streptococcus agalactiae = system: Streptococcus agalactiae
# [8] = system: Escherichia coli ATCC 25922
# [9] = system: Bacillus subtilis BGSC 1A1
# Escherichia coli D31 = system: Escherichia coli D31
smiles,measurement,setting,value
CC[C@H](C)[C@H](NC(=O)[C@H](CCCCN)NC(=O)[C@H](C)NC(=O)[C@H](CCCN=C(N)N)NC(=O)[C@H](CCCCN)NC(=O)[C@H](CCCCN)NC(=O)CNC(=O)[C@H](CCC(=O)O)NC(=O)[C@H](CCC(N)=O)NC(=O)[C@@H](NC(=O)[C@H](CCCCN)NC(=O)[C@H](CCCCN)NC(=O)[C@H](CCCCN)NC(=O)[C@H](CC(C)C)NC(=O)[C@H](Cc1ccccc1)NC(=O)[C@H](CCC(N)=O)NC(=O)[C@H](CCCN=C(N)N)NC(=O)[C@@H](NC(=O)[C@@H](NC(=O)[C@H](CCC(=O)O)NC(=O)[C@H](CCCCN)NC(=O)CNC(=O)[C@H](C)N)[C@@H](C)O)[C@@H](C)CC)[C@@H](C)CC)C(=O)N[C@@H](C)C(=O)N[C@@H](Cc1c[nH]c2ccccc12)C(=O)O [AGKETIRQFLKKKIQEGKKRAKIAW],MIC,Escherichia coli BL21,2 µM
same,MIC,[1],64 µM
same,MIC,[2],1 µM
CC[C@H](C)[C@H](NC(=O)[C@H](CCCCN)NC(=O)[C@H](CCCCN)NC(=O)CNC(=O)[C@H](CCC(=O)O)NC(=O)[C@H](CC(N)=O)NC(=O)[C@@H](NC(=O)[C@@H](NC(=O)[C@H](CCCCN)NC(=O)[C@H](CCCCN)NC(=O)[C@H](CC(C)C)NC(=O)[C@H](CCCN=C(N)N)NC(=O)[C@H](CC(N)=O)NC(=O)[C@H](Cc1ccccc1)NC(=O)[C@@H](NC(=O)[C@H](CCCCN)NC(=O)[C@H](CCC(=O)O)NC(=O)[C@@H](NC(=O)CNC(=O)[C@H](C)N)[C@@H](C)O)[C@@H](C)CC)[C@@H](C)O)[C@@H](C)CC)C(=O)N[C@@H](C)C(=O)N[C@@H](CCCCN)C(=O)N[C@@H](CCCN=C(N)N)C(=O)N[C@@H](Cc1c[nH]c2ccccc12)C(=O)N[C@@H](Cc1c[nH]c2ccccc12)C(=O)O [AGTEKIFNRLKKTINEGKKIAKRWW],MIC,Escherichia coli BL21,0.25 µM
same,MIC,[1],32 µM
same,MIC,[2],0.125 µM
CC[C@H](C)[C@H](NC(=O)[C@H](Cc1ccccc1)NC(=O)[C@H](C)NC(=O)[C@H](CCCCN)NC(=O)[C@H](CCCCN)NC(=O)CNC(=O)[C@H](CCCN=C(N)N)NC(=O)[C@H](CCCCN)NC(=O)[C@H](CCCN=C(N)N)NC(=O)[C@H](CC(C)C)NC(=O)[C@H](CCC(=O)O)NC(=O)[C@H](CCC(=O)O)NC(=O)[C@H](CC(C)C)NC(=O)[C@H](CC(C)C)NC(=O)[C@H](Cc1ccc(O)cc1)NC(=O)[C@H](CCCCN)NC(=O)[C@@H](NC(=O)[C@H](CC(C)C)NC(=O)[C@H](C)NC(=O)[C@H](CCC(N)=O)NC(=O)[C@H](CCCN=C(N)N)NC(=O)[C@H](CCCCN)NC(=O)[C@H](C)N)[C@@H](C)O)C(=O)N[C@@H](C)C(=O)N[C@@H](Cc1c[nH]c2ccccc12)C(=O)O [AKRQALTKYLLEELRKRGKKAFIAW],MIC,Escherichia coli BL21,4 µM
same,MIC,[1],16 µM
same,MIC,[2],4 µM
CC[C@H](C)[C@H](NC(=O)[C@@H](NC(=O)[C@@H]1CCCN1C(=O)[C@@H](NC(=O)[C@@H]1CCCN1C(=O)[C@H](CCCCN)NC(=O)[C@H](CCCCN)NC(=O)[C@H](CO)NC(=O)CN)C(C)C)[C@@H](C)CC)C(=O)N[C@@H](Cc1ccc(O)cc1)C(=O)N[C@H]1CSSC[C@@H](C(=O)N[C@@H](CCC(N)=O)C(=O)O)NC(=O)[C@H](CCCCN)NC(=O)CNC(=O)[C@H]([C@@H](C)O)NC(=O)[C@H](CCCN=C(N)N)NC(=O)[C@H](CCCN=C(N)N)NC(=O)[C@H](CC(N)=O)NC1=O [GSKKPVPIIYCNRRTGKCQ],MIC,Fusarium culmorum,14.1 µM
same,MIC,Aerococcus viridans,3.54 µM
same,MIC,Bacillus megaterium,7.07 µM
same,MIC,Alternaria brassicicola,7.07 µM
same,MIC,Ascochyta pisi,28.3 µM
same,MIC,Neurospora crassa,14.1 µM
same,MIC,Pediococcus acidilactici,28.3 µM
same,MIC,Botrytis cinerea,7.07 µM
same,MIC,Trichoderma viride,14.1 µM
same,MIC,Fusarium haematococcum,7.07 µM
same,MIC,Micrococcus luteus,7.07 µM
CC[C@H](C)[C@H](N)C(=O)N[C@@H](CC(C)C)C(=O)N[C@@H](CO)C(=O)N[C@@H](CC(C)C)C(=O)N[C@@H](CCCN=C(N)N)C(=O)N[C@@H](Cc1c[nH]c2ccccc12)C(=O)N[C@@H](CCCN=C(N)N)C(=O)N[C@@H](Cc1c[nH]c2ccccc12)C(=O)N[C@@H](CCCCN)C(=O)N[C@@H](Cc1c[nH]c2ccccc12)C(=O)N[C@@H](Cc1c[nH]c2ccccc12)C(=O)N[C@@H](CCCCN)C(=O)N[C@@H](CCCCN)C(=O)O [ILSLRWRWKWWKK],MIC,Klebsiella pneumoniae,68 µM
same,MIC,[3],≥ 32 µM
same,MIC,Streptococcus pyogenes,4 µM
same,MIC,[4],≥ 32 µM
same,MIC,[5],32 µM
same,MIC,[6],8 µM
same,MIC,[7],68 µM
same,MIC,Streptococcus mutans,8 µM
same,MIC,Streptococcus agalactiae,8 µM
same,MIC,[8],16 µM
same,MIC,[9],4 µM
CC[C@H](C)[C@@H]1NC(=O)[C@@H]2CSSC[C@@H](C(=O)N[C@@H](CCCCN)C(=O)N[C@@H](CCCN=C(N)N)C(=O)N[C@@H](CCCCN)C(=O)O)NC(=O)[C@@H]3CSSC[C@H](NC(=O)[C@H](CO)NC(=O)[C@@H](NC(=O)[C@@H]4CCCN4C(=O)[C@H](CC(N)=O)NC(=O)[C@H](CC(N)=O)NC(=O)[C@@H](NC(=O)[C@H](CCCCN)NC(=O)[C@@H](N)CCCCN)[C@@H](C)CC)C(C)C)C(=O)N[C@@H](CC(C)C)C(=O)N[C@@H](CCCN=C(N)N)C(=O)N[C@@H](CCCCN)C(=O)NCC(=O)NCC(=O)N[C@@H](CCCN=C(N)N)C(=O)N[C@@H](CSSC[C@H](NC(=O)[C@H](CO)NC(=O)CNC(=O)[C@H]([C@@H](C)CC)NC(=O)[C@H](CCC(N)=O)NC(=O)[C@H](CCCN=C(N)N)NC(=O)[C@H]([C@@H](C)O)NC(=O)[C@H](CC(N)=O)NC(=O)CNC1=O)C(=O)NCC(=O)N[C@@H](C(C)C)C(=O)N1CCC[C@H]1C(=O)N[C@@H](Cc1ccccc1)C(=O)N[C@@H](CC(C)C)C(=O)N[C@@H](CCCCN)C(=O)N3)C(=O)N[C@@H](Cc1c[nH]c3ccccc13)C(=O)N[C@@H](CC(N)=O)C(=O)N[C@@H](CCCN=C(N)N)C(=O)N2 [KKINNPVSCLRKGGRCWNRCIGNTRQIGSCGVPFLKCCKRK],MIC,[1],1.73 µM
same,MIC,Escherichia coli D31,3.46 µM
CC[C@H](C)[C@H](NC(=O)[C@H](CCCCN)NC(=O)CNC(=O)[C@H](Cc1ccccc1)NC(=O)[C@H](CCCCN)NC(=O)[C@H](CCCN=C(N)N)NC(=O)[C@H](CC(C)C)NC(=O)[C@H](Cc1ccc(O)cc1)NC(=O)[C@H](CCC(=O)O)NC(=O)[C@H](CC(C)C)NC(=O)[C@H](CC(C)C)NC(=O)[C@H](CCC(=O)O)NC(=O)[C@H](CCCCN)NC(=O)[C@@H](NC(=O)[C@H](CC(C)C)NC(=O)[C@H](CCCN=C(N)N)NC(=O)[C@H](CCC(N)=O)NC(=O)[C@H](C)NC(=O)CNC(=O)[C@@H](N)Cc1c[nH]c2ccccc12)[C@@H](C)O)C(=O)N[C@@H](C)C(=O)N[C@@H](CCCN=C(N)N)C(=O)N[C@@H](CCCCN)C(=O)N[C@@H](C)C(=O)N[C@@H](Cc1c[nH]c2ccccc12)C(=O)O [WGAQRLTKELLEYLRKFGKIARKAW],MIC,Escherichia coli BL21,2 µM
same,MIC,[1],> 128 µM
same,MIC,[2],1 µM
